# Some of the results follow.
# Assays:
# Experiment in all cases: glycan array binding signal (z-score within array); higher = stronger binding
# Settings in all cases: glycan notation: IUPAC condensed, linker removed
# [1] = molecular target: GlcNAc(b1-3)Gal(b1-3)GalNAc
# Outline: (§1)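 From the Consortium for Functional Glycomics database, 3228 arrays were curated, keeping only those whose protein sequence was available. Binding is given as a within-array Z-score averaged across arrays sharing a protein sequence and across linkers. Negative Z-scores can be read as non-binding.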
# [2] = molecular target: GlcNAc(b1-3)Gal(b1-4)Glc
# Outline: as §1
# [3] = molecular target: GlcNAc(b1-3)Gal(b1-4)GlcNAc
# Outline: as §1
# [4] = molecular target: GlcNAc(b1-3)Gal(b1-4)GlcNAc(b1-3)Gal(b1-4)GlcNAc
# Outline: as §1
# [5] = molecular target: GlcNAc(b1-3)GalNAc
# Outline: as §1
# [6] = molecular target: GlcNAc(b1-3)Man
# Outline: as §1
# [7] = molecular target: GlcNAc(b1-3)[GlcNAc(b1-4)][GlcNAc(b1-6)]GlcNAc
# Outline: as §1
# [8] = molecular target: GlcNAc(b1-3)[GlcNAc(b1-6)]Gal(b1-4)GlcNAc
# Outline: as §1
# [9] = molecular target: GlcNAc(b1-3)[GlcNAc(b1-6)]GalNAc
# Outline: as §1
# [10] = molecular target: GlcNAc(b1-4)Gal(b1-4)GlcNAc
# Outline: as §1
# [11] = molecular target: GlcNAc(b1-4)GlcNAc
# Outline: as §1
# [12] = molecular target: GlcNAc(b1-4)GlcNAc(b1-4)GlcNAc
# Outline: as §1
# [13] = molecular target: GlcNAc(b1-4)GlcNAc(b1-4)GlcNAc(b1-4)GlcNAc(b1-4)GlcNAc
# Outline: as §1
# [14] = molecular target: GlcNAc(b1-4)GlcNAc(b1-4)GlcNAc(b1-4)GlcNAc(b1-4)GlcNAc(b1-4)GlcNAc
# Outline: as §1
# [15] = molecular target: GlcNAc(b1-4)[GlcNAc(b1-6)]GalNAc
# Outline: as §1
# [16] = molecular target: GlcNAc(b1-6)Gal(b1-4)GlcNAc
# Outline: as §1
# [17] = molecular target: GlcNAc(b1-6)GalNAc
# Outline: as §1
# [18] = molecular target: GlcNAc3Prop(b1-4)GlcNAc
# Outline: as §1
# [19] = molecular target: GlcNAc6S(b1-3)Gal(b1-4)GlcNAc
# Outline: as §1
# [20] = molecular target: Kdn(a2-3)Gal(b1-3)GalNAc
# Outline: as §1
# [21] = molecular target: Kdn(a2-3)Gal(b1-3)GlcNAc
# Outline: as §1
# [22] = molecular target: Kdn(a2-3)Gal(b1-4)Glc
# Outline: as §1
# [23] = molecular target: Kdn(a2-3)Gal(b1-4)GlcNAc
# Outline: as §1
# [24] = molecular target: Kdn(a2-3)Gal(b1-4)[Fuc(a1-3)]GlcNAc
# Outline: as §1
# [25] = molecular target: Kdn(a2-6)Gal(b1-4)GlcNAc
# Outline: as §1
# [26] = molecular target: Man(a1-2)Man(a1-2)Man(a1-3)Man
# Outline: as §1
# [27] = molecular target: Man(a1-2)Man(a1-2)Man(a1-6)[Man(a1-3)]Man
# Outline: as §1
# [28] = molecular target: Man(a1-2)Man(a1-3)Man
# Outline: as §1
# [29] = molecular target: Man(a1-2)Man(a1-3)[Man(a1-2)Man(a1-6)]Man
# Outline: as §1
# [30] = molecular target: Man(a1-2)Man(a1-3)[Man(a1-2)Man(a1-6)]Man(a1-6)[Man(a1-2)Man(a1-2)Man(a1-3)]Man
# Outline: as §1
binder,measurement,setting,value
"PRKCE (Homo sapiens), Q02156 (protein) MVVFNGLLKIKICEAVSLKPTAWSLRHAVGPRPQTFLLDPYIALNVDDSRIGQTATKQKTNSPAWHDEFVTDVCNGRKIELAVFHDAPIGYDDFVANCTIQFEELLQNGSRHFEDWIDLEPEGRVYVIIDLSGSSGEAPKDNEERVFRERMRPRKRQGAVRRRVHQVNGHKFMATYLRQPTYCSHCRDFIWGVIGKQGYQCQVCTCVVHKRCHELIITKCAGLKKQETPDQVGSQRFSVNMPHKFGIHNYKVPTFCDHCGSLLWGLLRQGLQCKVCKMNVHRRCETNVAPNCGVDARGIAKVLADLGVTPDKITNSGQRRKKLIAGAESPQPASGSSPSEEDRSKSAPTSPCDQEIKELENNIRKALSFDNRGEEHRAASSPDGQLMSPGENGEVRQGQAKRLGLDEFNFIKVLGKGSFGKVMLAELKGKDEVYAVKVLKKDVILQDDDVDCTMTEKRILALARKHPYLTQLYCCFQTKDRLFFVMEYVNGGDLMFQIQRSRKFDEPRSRFYAAEVTSALMFLHQHGVIYRDLKLDNILLDAEGHCKLADFGMCKEGILNGVTTTTFCGTPDYIAPEILQELEYGPSVDWWALGVLMYEMMAGQPPFEADNEDDLFESILHDDVLYPVWLSKEAVSILKAFMTKNPHKRLGCVASQNGEDAIKQHPFFKEIDWVLLEQKKIKPPFKPRIKTKRDVNNFDQDFTREEPVLTLVDEAIVKQINQEEFKGFSYFGEDLMP",glycan array binding signal (z-score),[1],-0.414
same,glycan array binding signal (z-score),[2],-0.403
same,glycan array binding signal (z-score),[3],-0.348
same,glycan array binding signal (z-score),[4],-0.39
same,glycan array binding signal (z-score),[5],-0.409
same,glycan array binding signal (z-score),[6],-0.38
same,glycan array binding signal (z-score),[7],4.39
same,glycan array binding signal (z-score),[8],-0.413
same,glycan array binding signal (z-score),[9],-0.151
same,glycan array binding signal (z-score),[10],-0.411
same,glycan array binding signal (z-score),[11],-0.322
same,glycan array binding signal (z-score),[12],-0.357
same,glycan array binding signal (z-score),[13],-0.405
same,glycan array binding signal (z-score),[14],-0.397
same,glycan array binding signal (z-score),[15],-0.393
same,glycan array binding signal (z-score),[16],-0.413
same,glycan array binding signal (z-score),[17],-0.382
same,glycan array binding signal (z-score),[18],-0.229
same,glycan array binding signal (z-score),[19],-0.323
same,glycan array binding signal (z-score),[20],-0.132
same,glycan array binding signal (z-score),[21],-0.38
same,glycan array binding signal (z-score),[22],-0.371
same,glycan array binding signal (z-score),[23],-0.214
same,glycan array binding signal (z-score),[24],-0.29
same,glycan array binding signal (z-score),[25],-0.237
same,glycan array binding signal (z-score),[26],-0.308
same,glycan array binding signal (z-score),[27],-0.232
same,glycan array binding signal (z-score),[28],-0.312
same,glycan array binding signal (z-score),[29],0.542
same,glycan array binding signal (z-score),[30],0.052
